Data reported in article PMC4336329 (PLoS ONE, 2015).
In all, about 310,000 compounds went through this assay and about 14,000 (4.5%) showed an effect of 50% or more. The effect is printed as a negative number. The list shows a part of the results.

The molecules below were run against human ether-à-go-go-related gene (hERG) potassium channel (human, UniProt Q12809) (assay: primary screen, population patch clamp on CHO cells stably expressing hERG).
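Also: peak tail current of the secondary pulse compared with the same well before compound.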

Chain of human ether-à-go-go-related gene (hERG) potassium channel (Q12809 whole entry, looked up): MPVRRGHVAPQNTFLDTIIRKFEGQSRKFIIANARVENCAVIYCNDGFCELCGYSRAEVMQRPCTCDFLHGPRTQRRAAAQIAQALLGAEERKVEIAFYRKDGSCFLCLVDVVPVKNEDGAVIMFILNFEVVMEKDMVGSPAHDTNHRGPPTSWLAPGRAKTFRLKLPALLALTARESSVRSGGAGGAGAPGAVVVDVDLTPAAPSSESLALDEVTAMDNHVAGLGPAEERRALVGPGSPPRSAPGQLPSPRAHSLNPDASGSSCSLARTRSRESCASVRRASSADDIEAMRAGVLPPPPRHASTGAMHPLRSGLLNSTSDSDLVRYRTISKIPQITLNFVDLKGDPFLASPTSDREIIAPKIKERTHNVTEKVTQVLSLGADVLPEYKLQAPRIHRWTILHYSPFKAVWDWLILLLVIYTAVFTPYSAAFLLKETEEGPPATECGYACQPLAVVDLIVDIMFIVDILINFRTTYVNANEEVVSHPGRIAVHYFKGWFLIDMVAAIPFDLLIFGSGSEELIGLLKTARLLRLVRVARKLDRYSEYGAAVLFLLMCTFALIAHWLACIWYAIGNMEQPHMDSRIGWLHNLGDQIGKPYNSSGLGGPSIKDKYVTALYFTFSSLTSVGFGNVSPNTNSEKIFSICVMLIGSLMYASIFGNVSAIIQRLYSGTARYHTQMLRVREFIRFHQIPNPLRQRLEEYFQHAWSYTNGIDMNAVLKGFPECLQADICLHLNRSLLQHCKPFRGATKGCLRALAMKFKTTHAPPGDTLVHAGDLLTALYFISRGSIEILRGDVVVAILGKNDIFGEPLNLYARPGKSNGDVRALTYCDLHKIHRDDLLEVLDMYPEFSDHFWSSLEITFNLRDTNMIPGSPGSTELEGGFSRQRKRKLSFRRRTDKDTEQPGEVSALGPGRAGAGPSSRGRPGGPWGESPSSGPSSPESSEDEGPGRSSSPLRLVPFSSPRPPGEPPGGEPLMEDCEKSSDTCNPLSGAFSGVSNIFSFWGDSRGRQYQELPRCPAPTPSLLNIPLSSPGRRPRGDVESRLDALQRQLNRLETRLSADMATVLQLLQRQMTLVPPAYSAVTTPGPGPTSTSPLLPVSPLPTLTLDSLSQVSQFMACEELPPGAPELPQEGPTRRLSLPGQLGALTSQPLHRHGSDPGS

Question: With `O=C(CN1C(=O)c2cccc3cccc1c23)Nc1ccc2c(c1)OCO2` as the molecule, how does the “hERG current change (%, negative = inhibition) at 10uM” value read?
Answer: Its value is 3.85%.

Question: For `COc1cc(C=O)ccc1OCc1ccncc1`, which “hERG current change (%, negative = inhibition) at 10uM” value is on record?
Answer: The value was 16.5%.

Question: How did the “hERG current change (%, negative = inhibition) at 10uM” value turn out when `COc1cccc(NC(=O)CCCn2c(=S)[nH]c3ccccc3c2=O)c1` was run?
Answer: The value was 4.72%.

Question: Which “hERG current change (%, negative = inhibition) at 10uM” value does the source give for `O=C(Nc1ccc2c(c1)oc1ccccc12)C1CC1` here?
Answer: Its value is 11.1%.

Question: How did the “hERG current change (%, negative = inhibition) at 10uM” value turn out when `COc1ccc(NC(=O)CCNC(=O)c2ccco2)cc1OC` was run?
Answer: The value was 18%.

Question: With `CCOC(=O)c1c(C)[nH]c(C(=O)CSc2nnnn2-c2ccc(C)cc2)c1C` as the molecule, how does the “hERG current change (%, negative = inhibition) at 10uM” value read?
Answer: The value was 1.62%.

Question: How did the “hERG current change (%, negative = inhibition) at 10uM” value turn out when `COc1ccc(C(=O)NC(Cn2ccnc2)C(C)(C)C)cc1OC1CCN(C(C)C)CC1` (stereo not shown) was run?
Answer: Its value is -2.49%.

Question: How did the “hERG current change (%, negative = inhibition) at 10uM” value turn out when `O=C(O)CC1c2ccccc2CCN1S(=O)(=O)c1ccccc1` (stereo not shown) was run?
Answer: The value was -1.51%.

Question: Which “hERG current change (%, negative = inhibition) at 10uM” value does the source give for `Cc1cc(NC(=O)C(C)SCC(=O)OCc2ccc([N+](=O)[O-])cc2)no1` (stereo not shown) here?
Answer: Its value is -22.2%.

Question: Which “hERG current change (%, negative = inhibition) at 10uM” value does the source give for `CCCNC(=S)Nc1cccc(C(F)(F)F)c1` here?
Answer: The value was -4.65%.

Question: Which “hERG current change (%, negative = inhibition) at 10uM” value does the source give for `COc1ccccc1CNc1ccc(N2CCCCC2)cc1` here?
Answer: Its value is -41.7%.

Question: How did the “hERG current change (%, negative = inhibition) at 10uM” value turn out when `Cc1ccc(CCNC(=O)c2cc(-c3ccncc3)nc3ccc(S(=O)(=O)N4CCOCC4)cc23)cc1` was run?
Answer: Its value is 14.2%.

Question: For `CN(C)CCCO[C@@H]1[C@H]2OC(C)(C)O[C@H]2O[C@@H]1[C@H](O)CO.Cl`, which “hERG current change (%, negative = inhibition) at 10uM” value is on record?
Answer: Its value is 8.76%.

Question: How did the “hERG current change (%, negative = inhibition) at 10uM” value turn out when `Cc1cc2nc3n(c2cc1C)CC1CC(C(=O)NCc2cccc(C(F)(F)F)c2)N(C)C31` (stereo not shown) was run?
Answer: Its value is -66.7%.

Question: For `O=C(COC(=O)/C=C/c1ccc(F)cc1)Nc1nnc(-c2ccccc2)o1`, which “hERG current change (%, negative = inhibition) at 10uM” value is on record?
Answer: Its value is 2.39%.

Question: With `CCSc1nc(O)c(C2OC(=O)c3c2ccc(OC)c3OC)c(=O)n1CC` (stereo not shown) as the molecule, how does the “hERG current change (%, negative = inhibition) at 10uM” value read?
Answer: The value was 2.71%.

Question: How did the “hERG current change (%, negative = inhibition) at 10uM” value turn out when `O=C(O)CCN1C(=O)c2ccc(NC(=O)Cc3ccc(Cl)cc3)cc2C1=O` was run?
Answer: The value was 3.94%.

Question: For `COc1cc(NC(=O)c2ccc(Cl)cc2)c(OC)cc1NC(=O)CN1CCCCC1.Cl`, which “hERG current change (%, negative = inhibition) at 10uM” value is on record?
Answer: The value was -30.1%.

Question: `CCCCCCCCN1C(=O)N(C)C(N(O)C(=O)NC)C1(C)C` (stereo not shown) was tested. Which “hERG current change (%, negative = inhibition) at 10uM” value did it give?
Answer: The value was 8.37%.

Question: How did the “hERG current change (%, negative = inhibition) at 10uM” value turn out when `CCc1ccccc1N1CN(Cc2cccnc2)CNC1=S` was run?
Answer: Its value is 3.35%.

Question: Which “hERG current change (%, negative = inhibition) at 10uM” value does the source give for `O=C(Cc1ccccc1)NCc1n[nH]c(=S)n1-c1ccc(Br)cc1` here?
Answer: Its value is 15.5%.

Question: Which “hERG current change (%, negative = inhibition) at 10uM” value does the source give for `Cc1n[nH]c(=S)n1/N=C/c1ccccc1OCc1ccc(Cl)cc1Cl` here?
Answer: The value was 2.18%.

Question: How did the “hERG current change (%, negative = inhibition) at 10uM” value turn out when `Cc1ccc(S(=O)(=O)N(C)C)cc1NC(=O)c1ccc(-n2cncn2)c([N+](=O)[O-])c1` was run?
Answer: The value was -38.8%.

Question: How did the “hERG current change (%, negative = inhibition) at 10uM” value turn out when `Cc1cc(/C=C2/C(=O)NC(=O)N(Cc3ccco3)C2=O)c(C)n1-c1ccccc1O` was run?
Answer: Its value is -2.83%.

Question: Which “hERG current change (%, negative = inhibition) at 10uM” value does the source give for `O=C(CCNS(=O)(=O)c1cccs1)N1CCN(c2ccc(F)cc2)CC1` here?
Answer: The value was -20.7%.

Question: With `COc1nnc(-c2ccc(N3CCOCC3)c(NC(=O)c3ccco3)c2)c2ccccc12` as the molecule, how does the “hERG current change (%, negative = inhibition) at 10uM” value read?
Answer: Its value is -70%.

Question: How did the “hERG current change (%, negative = inhibition) at 10uM” value turn out when `O=C(O)c1ccccc1Nc1ccc([N+](=O)[O-])cc1` was run?
Answer: The value was -7.2%.

Question: With `CCOC(=O)c1c(C)[nH]c(C(=O)OCC(=O)Nc2cc(C)c(Cl)cc2OC)c1C` as the molecule, how does the “hERG current change (%, negative = inhibition) at 10uM” value read?
Answer: Its value is 6.85%.

Question: With `Cc1ccc(S(=O)(=O)Nc2cccc(C(=O)NCCCN3CCCC3=O)c2)cc1F` as the molecule, how does the “hERG current change (%, negative = inhibition) at 10uM” value read?
Answer: The value was -11.1%.

Question: For `O=C(CN1CCN(c2ccccn2)CC1)Nc1ccc(Oc2ccccc2)cc1`, which “hERG current change (%, negative = inhibition) at 10uM” value is on record?
Answer: The value was -11.8%.

Question: For `Cc1ccc(CCNC(=O)C(C)n2nc(C)c3c(C)n(-c4ccccc4)nc3c2=O)cc1` (stereo not shown), which “hERG current change (%, negative = inhibition) at 10uM” value is on record?
Answer: Its value is -36.3%.

Question: How did the “hERG current change (%, negative = inhibition) at 10uM” value turn out when `Cc1cc(C)c(NC(=O)C2CSCCS2)c(C)c1` (stereo not shown) was run?
Answer: Its value is 0.768%.

Question: With `COc1ccc(CN2CCCC(C(=O)N3CCCC3)C2)cc1.O=C(O)C(=O)O` (stereo not shown) as the molecule, how does the “hERG current change (%, negative = inhibition) at 10uM” value read?
Answer: Its value is -41.2%.

Question: `CC(OC(=O)CCN1C(=O)c2cccc([N+](=O)[O-])c2C1=O)C(=O)Nc1cc(Cl)cc(Cl)c1` (stereo not shown) was tested. Which “hERG current change (%, negative = inhibition) at 10uM” value did it give?
Answer: Its value is -68.6%.

Question: With `CCOC(=O)N1CCN(C(=O)C(NC(=O)C2CCC(C)CC2)C(C)C)CC1` (stereo not shown) as the molecule, how does the “hERG current change (%, negative = inhibition) at 10uM” value read?
Answer: Its value is 4.68%.

Question: How did the “hERG current change (%, negative = inhibition) at 10uM” value turn out when `CCc1nnc(NC(=O)CSc2nnc(-c3cccnc3)n2C)s1` was run?
Answer: Its value is 13.6%.

Question: How did the “hERG current change (%, negative = inhibition) at 10uM” value turn out when `O=S(=O)(NCCOc1ccccc1F)c1cccc(Br)c1` was run?
Answer: The value was 14.9%.

Question: How did the “hERG current change (%, negative = inhibition) at 10uM” value turn out when `O=[N+]([O-])c1ccc2c(c1N1CCCCC1)=NC1(CCCCC1)[N+]=2[O-]` was run?
Answer: Its value is -8.78%.

Question: How did the “hERG current change (%, negative = inhibition) at 10uM” value turn out when `CSc1ccccc1NC(=O)Cn1ccsc1=N` was run?
Answer: The value was 33.3%.

Question: With `C=CCNC(=O)/C(C#N)=C\c1cc(Cl)c(OCC)c(OC)c1` as the molecule, how does the “hERG current change (%, negative = inhibition) at 10uM” value read?
Answer: The value was 3.59%.

Question: How did the “hERG current change (%, negative = inhibition) at 10uM” value turn out when `COc1ccc(C(=O)Nc2ccc3ccccc3c2)cc1` was run?
Answer: The value was 20.4%.

Question: `Cc1ccc(S(=O)(=O)N(CCO)Cc2cc3ccc(C)c(C)c3[nH]c2=O)cc1` was tested. Which “hERG current change (%, negative = inhibition) at 10uM” value did it give?
Answer: Its value is -23.6%.

Question: With `Cc1ccc(S(=O)(=O)Nc2ccc(NC(=O)CN3CCCCC3)c(Cl)c2)cc1` as the molecule, how does the “hERG current change (%, negative = inhibition) at 10uM” value read?
Answer: The value was 1.31%.
